In the supplement of paper PMC10126150:
Values marked as one replicate rest on one cluster of the flow cell; about a third of the high ones do not repeat.

Test system: ATP
Assay: switch fluorescence ratio, 500 uM ATP over buffer (Cy3 cluster intensity, sum of 5 cycles each) (fold (ratio)); higher = stronger signal-on switching upon ATP binding; sequences stand for … in TCGTCGGCAGCGTCAGATGTGTATAAGAGACAGTTTTTTTTTTTTTTTTTTTTTTTTT…TC
Conditions: aptamer strand: ATP DNA aptamer (quencher-CACCTGGGGGAGTATTGCGGAGGAAGG + anchor), 100 nM annealed; ATP concentration: 500 uM; one replicate
In short: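 Between each of five buffer/ATP cycles, the flow-cell was stripped with NaOH and re-annealed. Each cycle imaged Cy3-labelled switching-strand clusters, annealed to 100 nM quencher-labelled ATP aptamer on a modified Illumina MiSeq flow-cell, first in selection buffer and then after 15 min with 500 uM ATP at 22 °C. The fluorescence ratio is summed target-cycle over summed buffer-cycle Cy3 intensity per cluster, averaged per switch-domain sequence, with clusters outside 100-1000 RFU excluded.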
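Further: ATP exposure 15 min at 22 °C before imaging.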

Sequence	switch fluorescence ratio
TCGCCAGTGA	1.01
GCGAGGCTTG	0.996
GCCGGGTCTC	1.04
TTCTTGGCTG	1.02
GTCTGGACTC	0.949
CTCTATTGGC	1.05
GTTATGCGAG	0.972
GGACACGCTG	1.03
AGGATGTAGA	1.04
CGGGGCCGC	0.974
TATAGCTGCC	1.19
CACGTCGGT	0.982
AACCTGATAT	1.37
CTTTCAGACA	1
CAAGGAATAG	1.19
CTGTTTTAGC	0.952
TGGTTAGGTG	1.15
ATCACTCTT	1.05
CGTTACGGTG	1.01
TCTTATTGAG	0.976
GTCAAGTATC	1.02
CGCGTGTTTG	1.02
TGGGACGG	1.03
GGCGCGCCAA	1.03
GGTCTTTGTC	1.04
CGCTCGTATC	0.986

Sequence	switch fluorescence ratio
TCCTCCTTAT	1.13
ATAGACAGG	0.995
TTATATTTGG	1.05
TGAAGGCAGC	1.05
GACGGGCTAG	0.983
TAAGCAGTTG	0.964
GCAACAATGA	0.995
ACGGTAGCGG	1.01
CGGGGACCCA	1.02
TCGTTATAGG	0.979
AGTCATTTGA	0.979
GTCGTATATA	1
CGTGTCCAGA	0.997
AAGGTCCCAA	0.998
AGGGTCGCCC	0.986
TTTGTGGCTC	1.05
TGAAGGGACA	1.12
CGGTCAGCTT	0.997
CCAGTTGCT	1
TCCAGCATTA	1.74
ACGGCGCAAT	2.31
TCCAATAAAC	1.19
TAAGTTGTCT	1.04
CAATTCCGGG	1.11
GAGCGCCAGT	0.98
GATTATGTGA	1.03

Sequence	switch fluorescence ratio
TTTTTACCCC	1.13
GCTGGTGTAG	1.01
TCTAGAGGTT	1.01
GGCGTGGCTT	0.987
GAAGCATTGA	1.31
TGGCAATCGG	1.08
TTCCATTGT	1.03
CGCCTTAATA	1.09
GACGACGGTC	1.21
CAGCTTTTTT	0.988
CGTGGGATTT	1
TATCTTGTAA	1.01
GGTAGGTTTC	0.996
ATACATATGT	1.01
TAGGGTGCG	0.993
AGGGCAATCG	1.01
GGTCAAATTG	1.02
AACGTGGAAC	1.04
CGGACGAAGC	1.12
CACTAGATGT	1.02
TCACGTTGAT	1.01
GTGTTGTCCA	0.934
GGTACGCCCC	1.12
ATTGGGCTCG	0.991
CCCCACTGC	1.08
GTTCGTCAGG	1.04

Sequence	switch fluorescence ratio
GCAAAAGTCG	0.986
GGGGCTAGG	1.12
GGATAGGCTT	1.04
GGGAATGTGC	1.07
CTGGGGGCC	1.04
CTACAACGAC	1.2
GTTTCGAGAG	1.04
GAGCTTCGTG	0.997
AAGTTGAAAC	1.01
ATTTGCGGTC	1.01
ATCATGTGCC	0.993
TGTTCTGCTG	1.04
CATAGAGGCG	0.985
AGCTCTATGG	0.986
CCTTGTTTT	1.01
AGCCTATGGG	1.01
TACAGCGCTC	1
TGGGTTAAGG	1.04
ACGTGTGTCA	0.994
GCAGAAAAG	1.1
AGATCTTTAA	1.03
TTACATAGTC	1.06
TTGGCTGCAC	1.02
ACGGACCGTC	0.954
AAGGGTAGG	0.996
CATTGAGGGA	1

Sequence	switch fluorescence ratio
CTGCAAATG	1.35
TAAACACTTC	1.09
AAAGTGGGTC	1
ACAAATAAG	0.942
TCCAGTTCTC	1.01
TGCTCCGTCA	1.89
CTTCGCCGGT	1.18
CGAGAAGAAA	0.944
TGTTGGATAC	1.45
TTAGAATTGG	1.04
AGAACTAATG	1.04
GCAGTCGGTC	1.03
TATGAGGTGG	1.06
CGTTAGCTAA	1.03
CTGGGTTCGG	0.968
TGGGTGTCAA	1.04
ATTACATGGG	1
AGCCGGGGAT	0.961
TTTAGGGTT	0.964
AGAAAGCATC	0.982
AGCGCTAGAA	0.997
AGGATGGGCC	0.982
GCGCTGTATT	1
AGCATTTGTT	1.01
TTTAATAGTA	0.96
GCGTCTATCT	0.963

Sequence	switch fluorescence ratio
TAGGTAGTAG	1.03
GGATTACACG	1.09
CATGCAACGG	1.07
GGCAATCATA	1.03
GCTCACGTAA	2.23
GAACAAGCGG	1.04
CATCCAGTCT	1.29
AGCCGGTAGT	1.01
GCAAGGCTTC	1.03
TAAGAATTTA	1
CGGCGTTCTC	1.03
TAACTTGCGC	1.05
GTGATTAGC	1.05
TGCAAAGGCT	1.01
GTATTATGGA	0.974
TGTGTAAAAA	0.937
AATGTCGGGG	0.932
CCTGACCACC	1.36
TAAACCATGA	1.01
CACGTCCTGT	1.02
AACAATATTC	1.06
TTTACAGACG	1.12
TTCAGTATGC	1.04
CAAACGTCTT	1.03
ATTATAAAGT	1.01
TGCATCAAAT	1.02

Sequence	switch fluorescence ratio
CCCCAAGACA	1.2
ACGTGCGACA	1.13
CTCCACCAGT	5.47
ACCCGCTAAT	2.61
GATATAGT	1.02
TTCTCGGCGG	0.974
CAGCACGTTG	0.988
TGGATTGCTC	1.56
CATGGTAGTG	1.01
TATTTTCGG	0.966
TGCTGGGGG	1.04
ACGCGTCTGG	0.982
TCATCGCGGA	1.1
AAAACGGAGC	1.48
CCGGATCGGT	1.01
GGTCTATATC	1
CCAACGTTGG	0.999
AAACCGGGTA	1.97
AAATCGACGC	1.51
GGATAAGACT	0.989
TGCACCAAGA	1.03
ACAGAGCGCT	1.05
CGACCGTCGA	1.02
ATTGCTTTAC	1.2
TGTCAGGCGA	1.05
AATACCCAAA	1.04

Sequence	switch fluorescence ratio
CTACCCTGGA	1.05
AACGGCTGTA	1.01
TAGATACGCA	1.09
TCGGGGCCCT	0.982
TTACTAAAAA	1.03
CAAACCGTAA	1.43
GCAATCACTT	1.35
ATTAGAATTG	0.998
ACGATCCACT	1.23
GTTGTTA	0.994
TATCGAGTTC	1.02
GCTCACTTGC	1.05
GAAAGAATCT	0.976
CGGGTGAGCC	1.02
TTGCAGGTG	3.04
TGCAAACGTC	0.934
TACTATTAAC	1.04
TGCAGAGGCT	1.06
TTCCGGGATG	1.08
